Common to all, as to test: co-IP; (Flag)3-TET1 constructs and (HA)3-NANOG constructs expressed together in E14/T ESCs; Benzonase-treated nuclear protein extracts (350 mM KCl); TET1 immunoprecipitated by its Flag tag, immunoblot; for TET1(734–1169) also after phosphatase treatment of the extracts
For orientation: In western blotting, separated proteins are transferred to a membrane and probed.

The chains behind the UniProt entries cited, without tags or fusion partners. Where a name states a change or a piece, a line headed by the entry shows the natural chain unless it says otherwise. A line that says so, or that is headed by a name, gives the form on record, which may keep a tag or linker. Residues count along the entry.
UniProt Q3URK3: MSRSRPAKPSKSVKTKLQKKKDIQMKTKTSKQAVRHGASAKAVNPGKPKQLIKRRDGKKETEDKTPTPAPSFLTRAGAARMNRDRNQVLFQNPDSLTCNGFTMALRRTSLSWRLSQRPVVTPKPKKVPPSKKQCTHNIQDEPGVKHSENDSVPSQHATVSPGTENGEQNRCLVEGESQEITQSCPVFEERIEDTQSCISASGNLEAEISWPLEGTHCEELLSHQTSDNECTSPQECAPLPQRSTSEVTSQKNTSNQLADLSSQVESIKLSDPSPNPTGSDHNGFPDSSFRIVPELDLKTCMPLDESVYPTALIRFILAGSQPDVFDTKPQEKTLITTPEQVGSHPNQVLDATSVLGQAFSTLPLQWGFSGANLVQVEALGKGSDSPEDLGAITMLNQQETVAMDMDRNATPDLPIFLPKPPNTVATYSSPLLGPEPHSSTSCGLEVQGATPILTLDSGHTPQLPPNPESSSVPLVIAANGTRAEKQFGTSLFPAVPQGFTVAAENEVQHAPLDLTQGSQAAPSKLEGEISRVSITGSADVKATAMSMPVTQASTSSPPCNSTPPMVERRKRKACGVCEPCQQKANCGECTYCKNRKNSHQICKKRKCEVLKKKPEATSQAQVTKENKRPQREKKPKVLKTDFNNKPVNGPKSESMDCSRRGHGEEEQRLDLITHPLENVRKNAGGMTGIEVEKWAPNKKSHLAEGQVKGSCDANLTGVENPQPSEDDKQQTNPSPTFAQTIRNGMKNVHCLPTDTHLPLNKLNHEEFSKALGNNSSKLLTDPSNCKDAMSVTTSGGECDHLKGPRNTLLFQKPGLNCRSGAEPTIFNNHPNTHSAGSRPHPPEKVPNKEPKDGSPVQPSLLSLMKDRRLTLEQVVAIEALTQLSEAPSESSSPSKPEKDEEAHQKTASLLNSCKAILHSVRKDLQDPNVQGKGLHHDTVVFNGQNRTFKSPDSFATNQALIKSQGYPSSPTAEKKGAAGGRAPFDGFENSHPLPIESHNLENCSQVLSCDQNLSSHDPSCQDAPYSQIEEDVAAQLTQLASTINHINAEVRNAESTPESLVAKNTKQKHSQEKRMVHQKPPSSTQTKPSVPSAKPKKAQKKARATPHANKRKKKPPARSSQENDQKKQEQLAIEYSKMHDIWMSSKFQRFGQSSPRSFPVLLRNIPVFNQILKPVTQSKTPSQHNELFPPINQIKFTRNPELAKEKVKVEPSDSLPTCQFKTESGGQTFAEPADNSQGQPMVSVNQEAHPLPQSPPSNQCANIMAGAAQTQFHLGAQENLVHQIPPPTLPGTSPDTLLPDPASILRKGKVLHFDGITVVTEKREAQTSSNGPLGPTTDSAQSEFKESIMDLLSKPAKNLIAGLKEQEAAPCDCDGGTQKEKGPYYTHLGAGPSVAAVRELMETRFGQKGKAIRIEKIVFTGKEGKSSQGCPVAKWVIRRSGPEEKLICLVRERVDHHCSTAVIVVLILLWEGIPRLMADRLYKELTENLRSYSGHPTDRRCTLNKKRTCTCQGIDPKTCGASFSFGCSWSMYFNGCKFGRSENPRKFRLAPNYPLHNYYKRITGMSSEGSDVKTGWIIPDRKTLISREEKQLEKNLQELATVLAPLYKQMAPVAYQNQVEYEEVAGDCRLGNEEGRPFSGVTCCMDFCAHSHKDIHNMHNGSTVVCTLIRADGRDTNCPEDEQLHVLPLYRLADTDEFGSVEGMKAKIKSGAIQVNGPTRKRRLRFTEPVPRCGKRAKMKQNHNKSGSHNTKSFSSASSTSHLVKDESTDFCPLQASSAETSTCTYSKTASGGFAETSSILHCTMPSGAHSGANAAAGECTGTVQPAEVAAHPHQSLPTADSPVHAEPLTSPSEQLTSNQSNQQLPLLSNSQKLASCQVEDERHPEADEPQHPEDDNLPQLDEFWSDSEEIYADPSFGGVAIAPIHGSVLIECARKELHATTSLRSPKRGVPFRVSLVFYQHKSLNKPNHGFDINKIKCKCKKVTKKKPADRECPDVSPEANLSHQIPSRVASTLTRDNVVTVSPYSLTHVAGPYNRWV
(Flag)3-TET1 1–1547 (WT): residues 1-1547 of Q3URK3
(Flag)3-TET1 1–1521 (WT): residues 1-1521 of Q3URK3
(Flag)3-TET1 1–1472 (WT): residues 1-1472 of Q3URK3
(Flag)3-TET1 1–1379 (WT): residues 1-1379 of Q3URK3
(Flag)3-TET1 1–321: residues 1-321 of Q3URK3
(Flag)3-TET1 1–108: residues 1-108 of Q3URK3
(Flag)3-TET1 734–2039: residues 734-2039 of Q3URK3
(Flag)3-TET1 734–1229: residues 734-1229 of Q3URK3
(Flag)3-TET1 734–1181: residues 734-1181 of Q3URK3
(Flag)3-TET1(734–1169): residues 734-1169 of Q3URK3
(Flag)3-TET1 734–1131: residues 734-1131 of Q3URK3
(Flag)3-TET1 1–1521 Δ1+2 (Q3URK3, form named): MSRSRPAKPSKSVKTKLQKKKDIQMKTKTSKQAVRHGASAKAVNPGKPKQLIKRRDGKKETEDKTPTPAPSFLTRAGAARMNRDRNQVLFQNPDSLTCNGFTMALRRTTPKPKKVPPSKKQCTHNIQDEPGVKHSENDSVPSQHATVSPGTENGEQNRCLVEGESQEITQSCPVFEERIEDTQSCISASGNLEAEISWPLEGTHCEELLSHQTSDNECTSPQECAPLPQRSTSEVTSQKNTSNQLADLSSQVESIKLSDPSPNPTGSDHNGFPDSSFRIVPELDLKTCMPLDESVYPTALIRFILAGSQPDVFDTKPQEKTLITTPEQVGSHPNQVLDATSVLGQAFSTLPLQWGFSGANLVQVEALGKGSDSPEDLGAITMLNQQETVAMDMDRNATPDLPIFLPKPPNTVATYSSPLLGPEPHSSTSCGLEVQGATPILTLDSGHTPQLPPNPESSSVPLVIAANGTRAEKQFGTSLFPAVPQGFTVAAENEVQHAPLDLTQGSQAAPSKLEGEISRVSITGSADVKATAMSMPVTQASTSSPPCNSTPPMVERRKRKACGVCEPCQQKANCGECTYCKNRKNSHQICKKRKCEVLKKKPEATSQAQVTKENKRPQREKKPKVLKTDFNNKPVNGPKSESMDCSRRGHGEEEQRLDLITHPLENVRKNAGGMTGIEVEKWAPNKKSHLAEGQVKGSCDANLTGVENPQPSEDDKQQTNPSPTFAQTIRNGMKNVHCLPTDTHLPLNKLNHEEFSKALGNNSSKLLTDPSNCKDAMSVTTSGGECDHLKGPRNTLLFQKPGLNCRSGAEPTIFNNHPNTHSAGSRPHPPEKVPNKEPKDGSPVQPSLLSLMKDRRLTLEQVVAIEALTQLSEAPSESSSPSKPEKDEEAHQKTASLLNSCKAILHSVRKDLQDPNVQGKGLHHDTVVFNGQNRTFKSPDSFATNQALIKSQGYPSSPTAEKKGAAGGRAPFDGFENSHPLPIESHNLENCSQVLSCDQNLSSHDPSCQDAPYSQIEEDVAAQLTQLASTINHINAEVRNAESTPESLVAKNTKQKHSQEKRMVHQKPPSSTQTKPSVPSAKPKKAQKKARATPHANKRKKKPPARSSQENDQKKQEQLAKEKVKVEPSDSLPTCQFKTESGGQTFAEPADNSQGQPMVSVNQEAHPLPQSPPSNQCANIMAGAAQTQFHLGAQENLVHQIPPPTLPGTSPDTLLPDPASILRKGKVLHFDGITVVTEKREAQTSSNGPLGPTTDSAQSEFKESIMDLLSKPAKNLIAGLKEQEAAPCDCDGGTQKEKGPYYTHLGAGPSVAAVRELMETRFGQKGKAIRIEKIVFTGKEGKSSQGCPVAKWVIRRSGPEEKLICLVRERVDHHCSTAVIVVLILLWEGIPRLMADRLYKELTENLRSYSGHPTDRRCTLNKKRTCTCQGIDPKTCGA
(Flag)3-TET1 1–1472 Δ1+2 (Q3URK3, form named): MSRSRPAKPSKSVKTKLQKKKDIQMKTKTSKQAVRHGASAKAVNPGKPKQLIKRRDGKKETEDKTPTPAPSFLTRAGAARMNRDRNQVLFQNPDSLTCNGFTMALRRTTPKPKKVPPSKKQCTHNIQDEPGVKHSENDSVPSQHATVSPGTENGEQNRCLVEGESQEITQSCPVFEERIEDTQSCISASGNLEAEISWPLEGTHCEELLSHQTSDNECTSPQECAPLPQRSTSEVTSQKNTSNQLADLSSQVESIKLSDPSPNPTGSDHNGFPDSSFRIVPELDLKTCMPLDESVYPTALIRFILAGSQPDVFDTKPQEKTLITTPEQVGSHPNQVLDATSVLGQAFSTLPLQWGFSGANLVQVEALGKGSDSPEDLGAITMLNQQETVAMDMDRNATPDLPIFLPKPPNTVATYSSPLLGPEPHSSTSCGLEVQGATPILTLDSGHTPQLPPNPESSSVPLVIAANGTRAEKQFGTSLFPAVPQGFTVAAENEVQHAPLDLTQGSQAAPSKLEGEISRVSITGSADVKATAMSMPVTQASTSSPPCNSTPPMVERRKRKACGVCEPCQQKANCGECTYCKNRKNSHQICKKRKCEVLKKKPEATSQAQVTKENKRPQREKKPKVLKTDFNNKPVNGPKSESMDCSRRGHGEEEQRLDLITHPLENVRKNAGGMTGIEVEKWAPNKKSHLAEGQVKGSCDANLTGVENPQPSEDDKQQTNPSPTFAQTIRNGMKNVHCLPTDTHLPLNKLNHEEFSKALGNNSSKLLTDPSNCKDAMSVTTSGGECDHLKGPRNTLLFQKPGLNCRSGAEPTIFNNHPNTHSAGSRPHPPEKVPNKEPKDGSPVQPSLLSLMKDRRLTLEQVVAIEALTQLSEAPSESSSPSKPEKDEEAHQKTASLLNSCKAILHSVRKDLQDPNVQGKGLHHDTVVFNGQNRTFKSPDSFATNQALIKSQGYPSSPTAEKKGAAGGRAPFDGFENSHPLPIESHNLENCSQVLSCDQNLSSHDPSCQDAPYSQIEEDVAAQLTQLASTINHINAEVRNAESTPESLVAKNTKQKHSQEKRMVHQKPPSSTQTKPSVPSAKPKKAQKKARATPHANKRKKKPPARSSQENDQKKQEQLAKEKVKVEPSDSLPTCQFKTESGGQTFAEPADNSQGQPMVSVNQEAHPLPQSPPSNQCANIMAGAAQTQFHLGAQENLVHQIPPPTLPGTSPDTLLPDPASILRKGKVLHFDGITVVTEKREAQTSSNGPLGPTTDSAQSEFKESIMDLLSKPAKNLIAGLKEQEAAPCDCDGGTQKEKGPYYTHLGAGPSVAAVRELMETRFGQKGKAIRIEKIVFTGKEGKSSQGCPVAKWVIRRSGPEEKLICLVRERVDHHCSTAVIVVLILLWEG

For experiment [1], the target named is (Flag)3-TET1 1–1521 Δ1+2 (mouse) (UniProt Q3URK3).
For experiment [2], the target named is (Flag)3-TET1 1–1379 (WT) (mouse) (UniProt Q3URK3).
In experiment [3] the target is (Flag)3-TET1 1–1547 (WT) (mouse) (UniProt Q3URK3).
Experiment [4] has as its target (Flag)3-TET1 1–1472 Δ1+2 (mouse) (UniProt Q3URK3).
In experiment [5] the target is (Flag)3-TET1 734–2039 (mouse) (UniProt Q3URK3).
For experiment [6], the target named is (Flag)3-TET1(734–1169) (mouse) (UniProt Q3URK3).
Experiment [7] concerns the target (Flag)3-TET1 full-length Δ1+2 (Δ109–120 + Δ1132–1202) (mouse) (UniProt Q3URK3).
Experiment [8] deals with (Flag)3-TET1 734–1131 (mouse) (UniProt Q3URK3).
The target of experiment [9] is (Flag)3-TET1 1–321 (mouse) (UniProt Q3URK3).
In experiment [10] the target is (Flag)3-TET1 734–1181 (mouse) (UniProt Q3URK3).
Experiment [11] concerns the target (Flag)3-TET1(1–1547) Δ1+2 (Δ109-120 + Δ1132-1202) (mouse) (UniProt Q3URK3).
Experiment [12] concerns the target (Flag)3-TET1 1–108 (mouse) (UniProt Q3URK3).
Experiment [13] concerns the target (Flag)3-TET1, full-length, wild-type (mouse) (UniProt Q3URK3).
The target of experiment [14] is (Flag)3-TET1 734–1229 (mouse) (UniProt Q3URK3).
The target of experiment [15] is (Flag)3-TET1 1–1472 (WT) (mouse) (UniProt Q3URK3).
For experiment [16], the target named is (Flag)3-TET1 1–1521 (WT) (mouse) (UniProt Q3URK3).

No constants are given. Whether binding was seen depends on the method and setting. Binding seen in cells or lysates may run through a third protein. Some binding calls cover weakened binding; strength is not graded here. Where a sequence is shown, tags or fusion partners need not be part of it.

B1: (HA)3-NANOG (protein, UniProt Q80Z64 1-305)
chain: MSVGLPGPHSLPSSEEASNSGNASSMPAVFHPENYSCLQGSATEMLCTEAASPRPSSEDLPLQGSPDSSTSPKQKLSSPEADKGPEEEENKVLARKQKMRTVFSQAQLCALKDRFQKQKYLSLQQMQELSSILNLSYKQVKTWFQNQRMKCKRWQKNQWLKTSNGLIQKGSAPVEYPSIHCSYPQGYLVNASGSLSMWGSQTWTNPTWSSQTWTNPTWNNQTWTNPTWSSQAWTAQSWNGQPWNAAPLHNFGEDFLQPYVQLQQNFSASDLEVNLEATRESHAHFSTPQALELFLNYSVTPPGEI
Regarding B1, the binding entry in [1] is on record as “no binding”; in [2] it was “binds weakly”; in experiment [3], “binds”; in experiment [4] it was “no binding”; in [5] it was “binds”; in experiment [6] it was “binds”. For the same molecule, the binding entry in experiment [7] is “binds”; in [8], “no binding”; in [9] it was “binds”; in experiment [10], “binds”; in [11] it was “binds”; in [12], “no binding”. Moreover, the binding entry in [13] was “binds”; in experiment [14] it was “binds”; in [15], “binds weakly”; in experiment [16], “binds weakly”.

Values taken from article PMC7763487 (2020).
